Reference: the supplement of paper PMC11060735
Structures can show the parent of a compound that is named as a salt. The campaign covered roughly 1,800 compounds. About 50 (3%) showed activity. Some of the results follow.

System: mouse p16Ink4a+/- lung fibroblasts (INKBRITE, bleomycin-injured)
Assay: percentage of GFP+ (p16Ink4a+) fibroblasts among all cells in well; higher = less depletion of p16Ink4a+ cells, active = 20 or less
Conditions: 1 µM; 3 days
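Note: fibroblasts sorted 14 days after bleomycin, GFP+ and GFP− mixed 1:1 in 384-well plates (GFP− as in-well control), imaged after Hoechst and NucView530 staining, reference wells lacked compound.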

Compound	percentage of GFP+
CC(C)(Sc1cc(C(C)(C)C)c(O)c(C(C)(C)C)c1)Sc1cc(C(C)(C)C)c(O)c(C(C)(C)C)c1 [Probucol]	inactive: 36.9%
CCCNC(C)C(=O)Nc1c(C)csc1C(=O)OC (stereo unspecified) [Articaine]	inactive: 49.4%
CN(C)CCC(c1ccccc1)c1ccccn1 (stereo unspecified) [Pheniramine]	inactive: 49.3%
C[N+]1(C)[C@@H]2C[C@@H](OC(=O)C(O)(c3cccs3)c3cccs3)C[C@H]1[C@@H]1O[C@@H]12 [Tiotropium]	inactive: 38.9%
COc1ccc2cc1Oc1ccc(cc1)C[C@H]1c3cc(c(OC)cc3CCN1C)Oc1c(OC)c(OC)cc3c1[C@H](C2)N(C)CC3 [Tetrandrine]	inactive: 44.8%
Cc1ccc2nc(NCCN)c3ncc(C)n3c2c1	inactive: 42.3%
CCc1cc2c(cc1N1CCC(N3CCOCC3)CC1)C(C)(C)c1[nH]c3cc(C#N)ccc3c1C2=O [Alectinib]	inactive: 39.9%
COc1cc(Nc2nc3ccccc3nc2NS(=O)(=O)c2ccc(NC(=O)c3ccc(C)c(OC)c3)cc2)cc(OC)c1	inactive: 37.4%
Nc1ccc(C(=O)NCC(=O)O)cc1 [Aminohippuric Acid]	inactive: 42.9%
NS(=O)(=O)Cc1noc2ccccc12 [Zonisamide]	inactive: 27.5%
COc1cc2c(cc1Cc1cccc(Cl)c1F)c(=O)c(C(=O)O)cn2[C@H](CO)C(C)C [Elvitegravir]	inactive: 26.3%
Cc1cnc(Nc2ccc(OCCN3CCCC3)cc2)nc1Nc1cccc(S(=O)(=O)NC(C)(C)C)c1	inactive: 40.9%
C[C@@H](O)[C@H]1C(=O)N2C(C(=O)O)=C(S[C@@H]3CN[C@H](CNS(N)(=O)=O)C3)[C@H](C)[C@H]12 [Doripenem]	inactive: 39.8%
Cn1cnc(N)c2ncnc1-2 [3-Methyladenine]	inactive: 45.9%
C=CCNC(N)=S [Allylthiourea]	inactive: 35%
Cc1ccc(C)c(OCCCC(C)(C)C(=O)O)c1 [Gemfibrozil]	inactive: 46.1%
O=C(O)C[C@H](O)C[C@H](O)/C=C/c1c(C2CC2)nc2ccccc2c1-c1ccc(F)cc1 [Pitavastatin Calcium]	inactive: 22.1%
CO/C(O)=C1\C(C)=NC(C)=C(C(=O)O[C@@H]2CCCN(Cc3ccccc3)C2)[C@@H]1c1cccc([N+](=O)[O-])c1 [Benidipine]	inactive: 41.8%
Cn1c([N+](=O)[O-])cnc1COC(N)=O [Ronidazole]	inactive: 49.8%
C[C@]12C=CC(=O)C=C1CC[C@H]1[C@@H]3C[C@@H](O)[C@](O)(C(=O)CO)[C@@]3(C)C[C@H](O)[C@@]12F [Triamcinolone]	inactive: 32%
NCC(=O)CCC(=O)O [Aminolevulinic acid]	inactive: 40.8%
CCN1CCN(c2ccc(Nc3cc(N(C)C(=O)Nc4c(Cl)c(OC)cc(OC)c4Cl)ncn3)cc2)CC1	inactive: 32.4%
NCCS [Cysteamine]	inactive: 52.9%
COC(=O)CCc1ccc(OCC(O)CNC(C)C)cc1 (stereo unspecified) [Esmolol, Esmolol Hydrochloride]	inactive: 48.2%

Compound	percentage of GFP+
[K] [Potassium Iodide]	inactive: 53.2%
NC(=O)N1c2ccccc2CC(=O)c2ccccc21 [Oxcarbazepine, Trileptal]	inactive: 46.9%
O=C(c1cc(Cc2nnc(O)c3ccccc23)ccc1F)N1CCN(C(=O)C2CC2)CC1 [Olaparib]	inactive: 42.4%
COC(=O)C1=CO[C@@H](O)[C@@H]2C(CO)=CC[C@H]12 [Genipin]	inactive: 38.5%
CCC(C)n1ncn(-c2ccc(N3CCN(c4ccc(OC[C@H]5CO[C@](Cn6cncn6)(c6ccc(Cl)cc6Cl)O5)cc4)CC3)cc2)c1=O (stereo partly specified) [Itraconazole]	inactive: 37.9%
CCOC(=O)[C@H](CCc1ccccc1)N[C@@H](C)C(=O)N1Cc2ccccc2C[C@H]1C(=O)O [Quinapril]	inactive: 41.2%
Nc1nc(O)c2[nH]nnc2n1 [8-azaguanine]	inactive: 49.2%
C[C@H]1[C@H](O)O[C@@H]2O[C@@]3(C)CC[C@H]4[C@H](C)CC[C@@H]1[C@@]24OO3 [Dihydroartemisinin (DHA)]	inactive: 32.4%
CN(C)c1ccc(-c2nc3c(N4CCN(CC(=O)Nc5nccs5)CC4)c(Cl)cnc3[nH]2)cc1	inactive: 45.4%
CCCOc1ccc2[nH]c(NC(=O)OC)nc2c1 [Oxybendazole, Oxibendazole]	inactive: 20.8%
O=C(O)Cc1cc(I)c(Oc2ccc(O)c(I)c2)c(I)c1 [Tiratricol]	inactive: 53.7%
CCCCCCCCOc1ccccc1C(=O)Nc1ccc(C(=O)OCC[N+](C)(CC)CC)cc1 [Otilonium Bromide]	inactive: 47.1%
C[C@@H]1O[C@@H](Oc2c(-c3cc(O)c(O)c(O)c3)oc3cc(O)cc(O)c3c2=O)[C@H](O)[C@H](O)[C@H]1O [Myricitrin]	inactive: 43.9%
O=C1NCC2(CCN(CCc3ccccc3)CC2)O1 [Fenspiride]	inactive: 44%
CNCCCC12CCC(c3ccccc31)c1ccccc12 [Maprotiline]	inactive: 38.1%
OC[C@H]1O[C@@H](Oc2cc(O)cc(/C=C/c3ccc(O)cc3)c2)[C@H](O)[C@@H](O)[C@@H]1O [Piceid]	inactive: 42.3%
CCNC(=O)CCC/C=C\C[C@@H]1[C@@H](/C=C/C(O)CCc2ccccc2)[C@@H](O)C[C@@H]1O (stereo partly specified) [Bimatoprost]	inactive: 33.1%
CCCNC(=O)NS(=O)(=O)c1ccc(Cl)cc1 [Chlorpropamide]	inactive: 48.7%
O=C(NS(=O)(=O)c1ccc(Br)s1)c1ccc(Cl)cc1Cl [Tasisulam]	inactive: 45%
CNCc1ccc(-c2[nH]c3cc(F)cc4c3c2CCNC4=O)cc1 [Rucaparib]	inactive: 45.1%
CCCCCCCN(CC)CCCC(O)c1ccc(NS(C)(=O)=O)cc1 (stereo unspecified) [Ibutilide]	inactive: 38.7%
COc1ccccc1N1CCN(CCN2C(=O)CC3(CCCC3)CC2=O)CC1 [Bmy 7378 Dihydrochloride]	inactive: 43.4%
Oc1cc2c(cc1O)[C@@H]1c3ccc(O)c(O)c3OC[C@]1(O)C2 [Hematoxylin]	inactive: 37.7%
CC[C@@H]([C@H](C)O)n1ncn(-c2ccc(N3CCN(c4ccc(OC[C@@H]5CO[C@@](Cn6cncn6)(c6ccc(F)cc6F)C5)cc4)CC3)cc2)c1=O [Posaconazole]	inactive: 25.4%

Compound	percentage of GFP+
Cc1ccc(-n2nc(C)c(N=Nc3cccc(-c4cccc(C(=O)O)c4)c3O)c2O)cc1C [Eltrombopag]	inactive: 46.6%
CNCCc1ccccn1 [Betahistine]	inactive: 43.8%
CC(=O)O[C@]1(C(C)=O)CC[C@H]2[C@@H]3C[C@H](C)C4=CC(=O)C=C[C@]4(C)[C@@]3(F)[C@@H](O)C[C@@]21C [Fluorometholone Acetate]	inactive: 37.1%
Cc1ccnc2c1NC(=O)c1cccnc1N2C1CC1 [Nevirapine]	inactive: 38.4%
NCCCCCC(=O)O [Aminocaproic Acid]	inactive: 48.1%
CC(C)CCNC(=O)[C@H](CC(C)C)NC(=O)[C@H]1O[C@@H]1C(=O)O [Loxistatin Acid]	inactive: 45.9%
CC(C)N(CCC(=O)c1ccc2ccccc2c1)Cc1ccccc1	inactive: 47.9%
CCOc1cc([C@@H](CS(C)(=O)=O)N2C(=O)c3cccc(NC(C)=O)c3C2=O)ccc1OC [Apremilast]	inactive: 45.5%
COc1ccc(-c2coc3cc(O)cc(O)c3c2=O)cc1 [Biochanin A]	inactive: 35%
O=C(O)CCCC[C@@H]1SC[C@@H]2NC(=O)N[C@@H]21 [Biotin, Vitamin B7]	inactive: 40%
Nc1ccc(S(=O)(=O)Nc2ncccn2)cc1 [Sulfadiazine]	inactive: 56.3%
CC(C)CCN1c2nc(Nc3cc(F)c(O)c(F)c3)ncc2N(C)C(=O)C1C (stereo unspecified)	inactive: 44.4%
CC(C(=O)O)c1cccc(C(=O)c2ccccc2)c1 (stereo unspecified) [Ketoprofen]	inactive: 34.9%
Nc1ccc(S(=O)(=O)Nc2ccccn2)cc1 [Sulfapyridine]	inactive: 44.1%
C=C1c2cccc(O)c2C(O)=C2C(=O)[C@]3(O)C(O)=C(C(N)=O)C(=O)[C@@H](N(C)C)[C@@H]3[C@@H](O)[C@H]12 [Methacycline]	inactive: 41.2%
CCOC(=O)[C@H]1O[C@@H]1C(=O)N[C@@H](CC(C)C)C(=O)NCCC(C)C [Aloxistatin]	inactive: 52.8%
CCn1cc(C(=O)O)c(=O)c2cc(F)c(N3CCNC(C)C3)c(F)c21 (stereo unspecified) [Lomefloxacin]	inactive: 44%
Nc1ncnc2[nH]nc(Nc3ccc(F)cc3)c12	inactive: 46.8%
O=C1c2ccc(Nc3ccc(F)cc3F)cc2CCc2ccc(OC[C@H](O)CO)cc21 [Skepinone-L]	inactive: 45.4%
CO/N=C(/C(=O)N[C@H]1C(=O)N2C(C(=O)O)=C(Cn3ccc(=N)n3CCO)CS[C@H]12)c1csc(N)n1 [Cefoselis Sulfate]	active: 17.3%
Cc1cccc(-c2[nH]c(C(C)(C)C)nc2-c2ccc3c(c2)OCO3)n1	inactive: 55.4%
Nc1nc(Cl)nc2c1ncn2[C@H]1C[C@H](O)[C@@H](CO)O1 [Cladribine]	inactive: 30.4%
CC(=O)c1c(C)c2cnc(Nc3ccc(N4CCNCC4)cn3)nc2n(C2CCCC2)c1=O [Palbociclib]	inactive: 34.5%
